# Reference: PubChem BioAssay (NCI)
#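 Cells were grown in 96-well plates and exposed to each compound for 48 hours at five concentrations; endpoints were interpolated linearly between bracketing concentrations, or set to the highest concentration if not reached. Here, GI50 denotes the concentration required for 50% inhibition of growth. TGI: total growth inhibition.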
# Tested on: NCI-H322M lung
# Experiment: DTP human tumour cell line panel, 48 h
smiles,measurement,value
Nc1cc(F)ccc1NC(=O)c1ccc(NC(=O)C/C=C/c2cccnc2)cn1,GI50,2.29 µM
same,TGI,> 50 µM
